Assay results taken from PubChem BioAssay AID1460 (National Center for Advancing Translational Sciences (NCATS), 2008).
Several values for one entry are separate records, joined by “and”; a condition that tells them apart may be missing. Identical values can stand only once. Out of some 270,000 compounds screened, about 5,800 (2.1%) were called active. This list was built around the results that the source calls inconclusive (neither active nor inactive); the mix of calls is not that of the screen. Calls follow the shape of the dose curve; as a rule, active = well fitted inhibition curve with a large enough effect; inconclusive = small, poorly fitted or top-dose-only effect; inactive = flat fitted curve, though single readings scatter. Potencies of inconclusive entries are doubtful fits and often do not repeat.

What follows are compounds tested against Microtubule-associated protein tau (Homo sapiens) (UniProt P10636) (assay: qHTS for Inhibitors of Tau Fibril Formation, Thioflavin T Binding). Conditions: recombinant tau K18 P301L, heparin-induced fibrillization, ThT fluorescence; series mostly up to 57.4 µM.
In short: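 Fibril formation assay: tau K18 P301L at 15 uM with trace Alexa 594 label, heparin inducer 20 uM, pH 7 sodium acetate buffer, 37 C for 6 hr; endpoint ThT signal.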
Also: nearly all actives have a fitted effect of over 55% in size.
Potency is read from the fitted curve at half-maximal effect; tags tell the direction and shape of the fitted curve.

Sequence of UniProt P10636 (P10636 whole entry, looked up): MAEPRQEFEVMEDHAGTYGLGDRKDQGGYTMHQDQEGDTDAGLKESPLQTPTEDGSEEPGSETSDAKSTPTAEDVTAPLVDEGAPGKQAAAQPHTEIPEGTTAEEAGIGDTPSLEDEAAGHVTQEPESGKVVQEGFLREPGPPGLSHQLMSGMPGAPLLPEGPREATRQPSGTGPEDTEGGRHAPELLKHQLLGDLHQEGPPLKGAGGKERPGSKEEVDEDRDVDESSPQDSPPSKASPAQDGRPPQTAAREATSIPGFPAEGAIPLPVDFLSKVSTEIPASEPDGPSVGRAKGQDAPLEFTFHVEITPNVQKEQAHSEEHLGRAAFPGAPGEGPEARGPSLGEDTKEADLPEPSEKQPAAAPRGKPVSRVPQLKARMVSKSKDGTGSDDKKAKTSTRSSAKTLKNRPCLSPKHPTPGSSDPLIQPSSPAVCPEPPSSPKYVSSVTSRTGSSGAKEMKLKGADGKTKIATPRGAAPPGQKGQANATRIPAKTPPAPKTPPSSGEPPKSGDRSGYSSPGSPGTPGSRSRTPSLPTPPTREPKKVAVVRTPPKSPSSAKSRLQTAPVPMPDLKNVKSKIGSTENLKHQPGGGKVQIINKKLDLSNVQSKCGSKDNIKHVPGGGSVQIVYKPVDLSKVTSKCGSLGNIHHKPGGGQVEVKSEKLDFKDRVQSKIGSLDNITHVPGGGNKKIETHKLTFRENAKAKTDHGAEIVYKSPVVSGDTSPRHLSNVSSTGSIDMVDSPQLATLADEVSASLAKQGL

SMILES	Potency
CC(=O)C1=C(O)C=C(c2ccco2)CC1c1ccco1 (centres undefined)	inconclusive: 25.1 µM [inhibitor, partial curve, poor fit]
N/C(=N\OC(=O)COc1ccc2ccccc2c1Br)c1ccccn1	inconclusive: 2.82 µM [inhibitor, full curve]
Cc1cc(C)nc(NS(=O)(=O)c2ccc(NC(=O)COc3ccc(C(C)(C)C)cc3)cc2)n1	inactive
COC(=O)c1ccc(OC(=O)c2ccc(OC)c(OC)c2)c(OC)c1	inconclusive: 28.2 µM [inhibitor, single point]
COc1ccccc1NC(=O)CSc1ncn(-c2ccccc2)n1	inactive
C=C(C)C(O)/C=C/c1cccc(OC)c1 (centres undefined)	inconclusive: 6.31 µM [inhibitor, partial curve, poor fit]
N#Cc1c(SCC(=O)Nc2nccs2)nc2c(c1-c1ccco1)CCCC2	inactive
CCS(=O)(=O)c1nc(S(=O)(=O)c2ccc(Cl)cc2)c(NCc2ccccn2)s1	inactive
Nc1c(Cl)ncnc1N/N=C/c1ccc2ccccc2n1	active: 3.98 µM
CCCn1ccc2c(OCC(=O)NCc3ccccc3Cl)cccc2c1=O	inconclusive: 44.7 µM [inhibitor, single point]
c1coc(-c2nc3nc4ccccc4n3nc2-c2ccco2)c1	inconclusive: 7.08 µM [inhibitor, partial curve]
CCc1cc(C(=O)Nc2ccc(C)cc2Br)cs1	inconclusive: 14.1 µM [inhibitor, partial curve]
CCCCC/C=C\C\C=C/C=C/C=C/[C@@H](O)[C@@H](O)CCCC(=O)O	inactive
C=CCSc1nnc(-c2ccc([N+](=O)[O-])cc2)o1	inconclusive: 14.1 µM [inhibitor, partial curve]
CC(C)C(=O)NC(c1ccccc1)c1cc([N+](=O)[O-])c2cccnc2c1O (centres undefined)	inconclusive: 14.1 µM [inhibitor, partial curve]
COC(=O)c1c(-c2ccc(Cl)cc2)noc1N1CCN(c2cccc(C(F)(F)F)c2)CC1	inconclusive: 20 µM [inhibitor, single point]
CCOc1cc(/C=C2/C(=O)N(c3ccccc3)N=C2C)ccc1OC(=O)c1cccs1	inconclusive: 17.8 µM [inhibitor, partial curve]
Cc1cc2ccccn2c1C(=O)c1cc([N+](=O)[O-])cc([N+](=O)[O-])c1	inactive
O=C(/C=C/c1ccc2ccccc2n1)N1CCN(c2ccccc2)CC1	inconclusive: 14.1 µM [inhibitor, partial curve]
c1ccc(-c2nnc(N3CCN(c4ccccn4)CC3)c3ccccc23)cc1	inconclusive: 12.6 µM [inhibitor, partial curve]
Cc1nnc(SCC(=O)Nc2nnc(SCc3cccc(Br)c3)s2)s1	inconclusive: 6.31 µM [inhibitor, partial curve]
O=[N+]([O-])c1cc(C(F)(F)F)cc([N+](=O)[O-])c1NCCNC(=S)Nc1ccc(Cl)c(Cl)c1	inconclusive: 17.8 µM [inhibitor, partial curve, poor fit]
Cc1nnsc1C(=O)N/N=C/c1ccc2ccccc2c1O	active: 3.16 µM

SMILES	Potency
O=C1CCC(C(=O)OCC(=O)c2ccccc2)N1 (centres undefined)	inactive
CCCCN(Cc1ccccc1)C(=O)CCN1C(=O)C2C3C=CC(C3)C2C1=O (centres undefined)	inactive
COC(=O)c1cc2oc3ccccc3c2n1Cc1cc(C)ccc1C	inactive
O=C(N/N=C/C=C/c1ccccc1)c1ccc(Br)cc1	inconclusive: 1.58 µM [inhibitor, full curve]
O=c1c(N2CCN(c3cccc(C(F)(F)F)c3)CC2)csc2ccc(Cl)cc12	active: 15.8 µM
COc1ccc(/C=N/OCC(=O)Nc2nc3ccccc3s2)cc1	inconclusive: 12.6 µM [inhibitor, partial curve]
COc1ccc(N=C/C=C2\C=C(c3ccccc3)OC(C)(C)O2)cc1	inconclusive: 14.1 µM [inhibitor, partial curve]
C/[N+]([O-])=C\C1C(=O)CC(C)(C)CC1=O	inactive
COc1ccc(N2CCN(Cc3nc4ccccc4n3C)CC2)cc1	inconclusive: 2.24 µM [inhibitor, full curve, poor fit]
COc1ccc(-c2cn3nc(N4CCCC(C(=O)NCc5ccccc5Cl)C4)sc3n2)cc1 (centres undefined)	inconclusive: 7.08 µM [inhibitor, partial curve]
Cc1cc(C)nc(SCC(=O)Nc2nc(-c3ccccc3)c(-c3ccccc3)o2)n1	inconclusive: 15.8 µM [inhibitor, partial curve]
O=C(COc1ccc2c(c1)OCO2)Nc1ccccc1C(F)(F)F	inactive
CCOc1ccccc1C1CC(=O)Oc2c1c(=O)n(C)c1ccccc21 (centres undefined)	inactive
CCCCCCCCSc1nnc(CSc2nc3nc(C)cc(C)n3n2)o1	inconclusive: 12.6 µM [inhibitor, partial curve]
CCC(C(=O)Nc1cc(-c2nc3cccnc3s2)ccc1C)c1ccccc1 (centres undefined)	inactive
CCOc1ccc(-c2nnc(SCC(=O)NCc3ccc(C)cc3)nc2-c2ccc(OCC)cc2)cc1	inconclusive: 1 µM [inhibitor, single point]
CC(C)N(C(=O)Nc1ccc2nsnc2c1)C(C)C	inconclusive: 39.8 µM [inhibitor, single point]
COc1cccc(CNC(=O)C2CCN(c3nnc(-n4c(C)ccc4C)s3)CC2)c1	inconclusive: 39.8 µM [inhibitor, single point]
CCc1ccc(-n2nc3ccc(NC(=O)c4ccc(C#N)cc4F)cc3n2)cc1	inactive
Cc1cc(C)[n+]2n1C(=O)C(c1ccccc1)=C2[O-]	inconclusive: 25.1 µM [inhibitor, single point]
CC(=O)Nc1cccc(NC(=O)c2c(-c3ccccc3)c(-c3ccccc3)nn(C)c2=O)c1	inactive
CC(C)(C)C1CCc2c(sc3nc(SCC(=O)O)nc(N)c23)C1 (centres undefined)	inconclusive: 28.2 µM [inhibitor, partial curve, poor fit]
Nc1ccc(CCc2nc3ccccc3o2)cc1	inconclusive: 28.2 µM [inhibitor, partial curve]

SMILES	Potency
C=Cc1c(C)c2cc3[nH]c(cc4nc(cc5nc(cc1[nH]2)C(C)=C5CCC(=O)O)C(CCC(=O)O)=C4C)c(C)c3C=C	active: 7.94 µM and active: 15.8 µM
COc1ccc(OC)c(C2c3c(oc4ccc(C)cc4c3=O)C(=O)N2CCCN(C)C)c1 (centres undefined)	inactive
O=C(NNC(=O)c1cc(O)c(O)c(O)c1)NC1CCCCC1	inconclusive: 17.8 µM [inhibitor, partial curve]
O=C1OCC2=C1C(c1ccc(F)cc1)c1cc3c(cc1N2)OCCO3 (centres undefined)	inconclusive: 28.2 µM [inhibitor, single point]
O=c1c2c(-c3ccc(Cl)cc3)ccnc2[nH]n1-c1ccccc1	inconclusive: 0.794 µM [inhibitor, full curve]
Cc1cccc(N2CCN(C(=O)CCn3c(=O)[nH]c4ccccc4c3=O)CC2)c1C	inconclusive: 11.2 µM [inhibitor, partial curve]
Cc1[nH]c(=O)[nH]c(=O)c1S(=O)(=O)N1CCCC(C(=O)NCCc2ccc(Cl)cc2)C1 (centres undefined)	inconclusive: 31.6 µM [inhibitor, single point]
O=C(NCCC1=CCCCC1)c1ccc2c(c1)ncn2-c1ccc(F)c(F)c1	inconclusive: 14.1 µM [inhibitor, partial curve, poor fit]
Oc1ccc(/C=N/Nc2nc(N3CCCCCC3)nc(N3CCCCCC3)n2)c(O)c1	inconclusive: 20 µM [inhibitor, single point]
CCS(=O)(=O)c1nc(S(=O)(=O)c2ccc(Cl)cc2)c(NCc2ccccc2Cl)s1	inactive
CC(=O)N1CC[n+]2c(-c3ccc(Cl)cc3Cl)csc21	inconclusive: 35.5 µM [inhibitor, single point]
COc1ccc2nc3sc(C(=O)NCCN4CCc5ccccc5C4)cc3cc2c1	inconclusive: 0.708 µM [inhibitor, full curve]
CC(=O)c1ccc(NC(=O)c2cc3nc4c(c(C(F)(F)F)n3n2)CCCC4)cc1	inconclusive: 5.01 µM [inhibitor, partial curve]
CC(=O)c1ccc(N2CCN(C(=O)COc3ccc(F)cc3)CC2)c(F)c1	inactive
Cc1onc(-c2ccccc2Cl)c1C(=O)Nc1sc2c(c1C#N)CCC2	active: 28.2 µM
CC(C)[n+]1ccn(C2=C([O-])c3ccccc3C(=O)/C2=N\S(=O)(=O)c2ccccc2)c1	inconclusive: 14.1 µM [inhibitor, partial curve]
Clc1ccc(-c2cc(COc3ccc4ccccc4c3)no2)cc1	inconclusive: 15.8 µM [inhibitor, partial curve]
CCOC(=O)CSc1nc2ccc(NC(=O)c3ccccc3F)cc2s1	inconclusive: 10 µM [inhibitor, partial curve]
Cc1ccc(NC(=O)C2CCCN(S(=O)(=O)c3cccc4cccnc34)C2)c(C)c1 (centres undefined)	inactive
COc1cccc(N(C(=O)c2nc3nccc(C)n3n2)c2nc3ccccc3s2)c1	inconclusive: 25.1 µM [inhibitor, partial curve, poor fit]
CCC(C)Sc1nc2c(c(=O)[nH]c(=O)n2C)n1CCc1ccccc1 (centres undefined)	inactive
COC(=O)c1ccc2c(=O)n(CCCCCC(=O)N3CCN(c4ccc(OC)cc4)CC3)c(=O)[nH]c2c1	inconclusive: 1.26 µM [inhibitor, full curve]
COc1cccc(N=c2oc3c(C)ncc(CO)c3cc2C(N)=O)c1	inconclusive: 25.1 µM [inhibitor, partial curve, poor fit]
